Shown are siRNA guide strands that differ only in the seed, positions 2 to 7.
Columns and labels:
GL261 = assay: cell viability relative to siNT1 (ATP content); H4 human neuroglioma and GL261 mouse glioma; higher = less toxic; settings: siRNA concentration 25 nM; 96 h; mouse
Procedure: (§1)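 Arrayed screen of all 4096 6mer seeds. Each seed sits at guide-strand positions 2-7 of a neutral 19mer siRNA backbone (siNT1-based, passenger strand 2'-O-methyl modified at positions 1-2 to block RISC loading, 3' DNA overhangs). The guide strand is built here as U + seed + ACAUGUAAACCA. Cells were reverse transfected in triplicate in 384-well plates (H4 at 10 nM, GL261 at 25 nM) with Lipofectamine RNAiMAX. Viability was read as ATP content (CellTiter-Glo) 96 h after transfection and normalised to siNT1 (%).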

H4 = assay: as above; settings: siRNA concentration 10 nM; 96 h; human
Procedure: as §1
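Also: cells reverse transfected with siRNA duplexes via lipid reagent, ATP read by luminescence, triplicate wells, values scaled to mean viability with non-targeting control siNT1.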

Sequence	cell viability (GL261) [%]	cell viability (H4) [%]
UCAGGUCACAUGUAAACCA	16.5	44.9
UCAGGUGACAUGUAAACCA	45.8	75.5
UCAGGUUACAUGUAAACCA	61	67.4
UCAGUAAACAUGUAAACCA	39.1	119
UCAGUACACAUGUAAACCA	23.2	55.8
UCAGUAGACAUGUAAACCA	52.5	98.2
UCAGUAUACAUGUAAACCA	39.4	65.8
UCAGUCAACAUGUAAACCA	34.8	100
UCAGUCCACAUGUAAACCA	18.8	28.6
UCAGUCGACAUGUAAACCA	26.9	104
UCAGUCUACAUGUAAACCA	27.8	113
UCAGUGAACAUGUAAACCA	52.6	77.9
UCAGUGCACAUGUAAACCA	32.6	71.2
UCAGUGGACAUGUAAACCA	23.2	29.3
UCAGUGUACAUGUAAACCA	38.6	103
UCAGUUAACAUGUAAACCA	65.9	80.4
UCAGUUCACAUGUAAACCA	34.3	76.4
UCAGUUGACAUGUAAACCA	59.6	77.4
UCAGUUUACAUGUAAACCA	48.3	93.4
UCAUAAAACAUGUAAACCA	38.8	104
UCAUAACACAUGUAAACCA	27.3	72.3
UCAUAAGACAUGUAAACCA	39.3	111
UCAUAAUACAUGUAAACCA	41.3	85

Sequence	cell viability (GL261) [%]	cell viability (H4) [%]
UCAUACAACAUGUAAACCA	36.5	114
UCAUACCACAUGUAAACCA	23.9	63.2
UCAUACGACAUGUAAACCA	30.6	83.4
UCAUACUACAUGUAAACCA	23.2	79.4
UCAUAGAACAUGUAAACCA	41	98.2
UCAUAGCACAUGUAAACCA	13.5	21.2
UCAUAGGACAUGUAAACCA	15.2	71.1
UCAUAGUACAUGUAAACCA	38.8	69
UCAUAUAACAUGUAAACCA	36.6	99.9
UCAUAUCACAUGUAAACCA	37.5	113
UCAUAUGACAUGUAAACCA	51.3	82.6
UCAUAUUACAUGUAAACCA	23.3	80.4
UCAUCAAACAUGUAAACCA	54.1	91.7
UCAUCACACAUGUAAACCA	50.5	86.8
UCAUCAGACAUGUAAACCA	41.5	83.9
UCAUCAUACAUGUAAACCA	50.2	88.1
UCAUCCAACAUGUAAACCA	39.1	96.4
UCAUCCCACAUGUAAACCA	7.19	56.4
UCAUCCGACAUGUAAACCA	40.1	73.4
UCAUCCUACAUGUAAACCA	22	72.4
UCAUCGAACAUGUAAACCA	48.2	87.9
UCAUCGCACAUGUAAACCA	18.4	89.4
UCAUCGGACAUGUAAACCA	28.9	56.3

Sequence	cell viability (GL261) [%]	cell viability (H4) [%]
UCAUCGUACAUGUAAACCA	11.3	111
UCAUCUAACAUGUAAACCA	43.2	118
UCAUCUCACAUGUAAACCA	17.8	70.6
UCAUCUGACAUGUAAACCA	54.6	79.4
UCAUCUUACAUGUAAACCA	35.6	97.9
UCAUGAAACAUGUAAACCA	46.2	117
UCAUGACACAUGUAAACCA	9.34	61.4
UCAUGAGACAUGUAAACCA	79.8	96.1
UCAUGAUACAUGUAAACCA	31.9	75.6
UCAUGCAACAUGUAAACCA	75	75.9
UCAUGCCACAUGUAAACCA	12.4	21.2
UCAUGCGACAUGUAAACCA	29.2	78.1
UCAUGCUACAUGUAAACCA	14.4	10.8
UCAUGGAACAUGUAAACCA	54.2	57.4
UCAUGGCACAUGUAAACCA	8.83	37.1
UCAUGGGACAUGUAAACCA	28.5	56.4
UCAUGGUACAUGUAAACCA	23.2	58
UCAUGUAACAUGUAAACCA	51.8	119
UCAUGUCACAUGUAAACCA	18.8	87.9
UCAUGUGACAUGUAAACCA	66.9	107
UCAUGUUACAUGUAAACCA	54.5	59.5
UCAUUAAACAUGUAAACCA	39.1	96
UCAUUACACAUGUAAACCA	25.2	51.4

Sequence	cell viability (GL261) [%]	cell viability (H4) [%]
UCAUUAGACAUGUAAACCA	36.3	70.3
UCAUUAUACAUGUAAACCA	37.5	78.1
UCAUUCAACAUGUAAACCA	37.2	70.5
UCAUUCCACAUGUAAACCA	26	53.2
UCAUUCGACAUGUAAACCA	32.6	82.8
UCAUUCUACAUGUAAACCA	26.8	80.9
UCAUUGAACAUGUAAACCA	37.6	70.3
UCAUUGCACAUGUAAACCA	18.9	51.3
UCAUUGGACAUGUAAACCA	32.2	49.3
UCAUUGUACAUGUAAACCA	16.5	73.9
UCAUUUAACAUGUAAACCA	42.1	113
UCAUUUCACAUGUAAACCA	41.5	75.1
UCAUUUGACAUGUAAACCA	37.7	73.6
UCAUUUUACAUGUAAACCA	27.3	85.4
UCCAAAAACAUGUAAACCA	55.9	81.7
UCCAAACACAUGUAAACCA	47.4	65.7
UCCAAAGACAUGUAAACCA	58.1	86.7
UCCAAAUACAUGUAAACCA	54.9	92.2
UCCAACAACAUGUAAACCA	68.3	67.2
UCCAACCACAUGUAAACCA	19.5	5.77
UCCAACGACAUGUAAACCA	69.2	93.9
UCCAACUACAUGUAAACCA	31	24.3
UCCAAGAACAUGUAAACCA	52	54.8

Sequence	cell viability (GL261) [%]	cell viability (H4) [%]
UCCAAGCACAUGUAAACCA	6.06	14.2
UCCAAGGACAUGUAAACCA	39.1	35
UCCAAGUACAUGUAAACCA	31.2	52.9
UCCAAUAACAUGUAAACCA	47	95.3
UCCAAUCACAUGUAAACCA	30.6	49
UCCAAUGACAUGUAAACCA	51.7	61.9
UCCAAUUACAUGUAAACCA	69.6	94.1
UCCACAAACAUGUAAACCA	34.3	66.3
UCCACACACAUGUAAACCA	32.7	80.8
UCCACAGACAUGUAAACCA	26.2	93.7
UCCACAUACAUGUAAACCA	36.6	93
UCCACCAACAUGUAAACCA	25.9	96.2
UCCACCCACAUGUAAACCA	17	59.4
UCCACCGACAUGUAAACCA	36.2	65.7
UCCACCUACAUGUAAACCA	29.1	47.6
UCCACGAACAUGUAAACCA	43.5	95.2
UCCACGCACAUGUAAACCA	21.3	40.8
UCCACGGACAUGUAAACCA	38.5	50.9
UCCACGUACAUGUAAACCA	43.7	75.9
UCCACUAACAUGUAAACCA	48.7	98.1
UCCACUCACAUGUAAACCA	32.5	62.1

— the supplement of paper PMC8948288
